Measurements published in PubChem BioAssay AID1030 (National Center for Advancing Translational Sciences (NCATS), 2008).
About 16,000 (7.3%) of roughly 220,000 compounds were called active. The inconclusive results got no clear call from the source; some entries with a clear call stand among them for comparison. Calls follow the shape of the dose curve; as a rule, active = well fitted inhibition curve with a large enough effect (not every such curve was filed as active); inconclusive = small, poorly fitted or top-dose-only effect, or another doubt; inactive = no such curve, though single readings can be large or run the other way. Potencies of inconclusive entries are left out as doubtful fits.

What follows are compounds tested against Aldehyde dehydrogenase 1A1 (Homo sapiens) (UniProt P00352) (assay: qHTS Assay for Inhibitors of Aldehyde Dehydrogenase 1 (ALDH1A1)). Conditions: Purified ALDH1A1, NADH fluorescence, propionaldehyde substrate; series mostly up to 75.3 µM.
Sequence of UniProt P00352 (P00352 whole entry, looked up): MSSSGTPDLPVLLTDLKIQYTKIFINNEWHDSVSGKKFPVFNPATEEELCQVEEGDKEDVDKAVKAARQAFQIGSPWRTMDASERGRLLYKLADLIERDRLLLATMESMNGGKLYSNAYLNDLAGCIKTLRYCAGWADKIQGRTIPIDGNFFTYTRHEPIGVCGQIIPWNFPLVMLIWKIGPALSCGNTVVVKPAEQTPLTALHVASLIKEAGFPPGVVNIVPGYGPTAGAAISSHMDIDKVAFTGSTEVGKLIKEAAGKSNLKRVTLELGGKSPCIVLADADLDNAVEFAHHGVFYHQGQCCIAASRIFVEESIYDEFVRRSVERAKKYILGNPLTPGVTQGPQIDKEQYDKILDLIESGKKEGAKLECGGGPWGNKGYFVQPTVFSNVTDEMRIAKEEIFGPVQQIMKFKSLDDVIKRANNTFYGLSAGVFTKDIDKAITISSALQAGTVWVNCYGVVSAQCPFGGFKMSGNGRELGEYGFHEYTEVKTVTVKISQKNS
Potency is read from the fitted curve at half-maximal effect; tags tell the direction and shape of the fitted curve.

Row | Compound | Potency
1 | O=C(O)C1CC=CCC1C(=O)Nc1cccnc1 (configuration not stated) | inactive
2 | Cc1cc(S(=O)(=O)N(Cc2ccc3c(c2)OCO3)CC2CCCO2)ccc1-n1cnnn1 (configuration not stated) | inconclusive [inhibitor, partial curve]
3 | COc1ccc(S(=O)(=O)N(CCCN2CCCC2=O)Cc2cc3cc(C)c(C)cc3[nH]c2=O)cc1 | inconclusive [inhibitor, partial curve]
4 | CCOC(=O)C(C)Sc1nc2c(c(=O)[nH]c(=O)n2C)n1CCc1ccccc1 (configuration not stated) | active: 12.6 µM
5 | Clc1ccc(-n2ncc3c(NCc4ccc5c(c4)OCO5)ncnc32)cc1 | inconclusive [inhibitor, single point]
6 | CCN(CC)Cc1c(O)ccc2occ(C(=O)c3ccc(OC)cc3)c12 | inconclusive [inhibitor, single point]
7 | COCCn1c(=O)c(-c2ccc(Cl)cc2)nc2cnc(N3CCNCC3)nc21 | inconclusive [inhibitor, partial curve]
8 | COc1ccc(CC(=O)OC(C)CN2CCCCC2)cc1 (configuration not stated) | inactive
9 | Cc1cccc(C(=O)NC2CCN(S(=O)(=O)c3ccccc3)CC2)c1 | inconclusive [inhibitor, partial curve]
10 | COCCn1c(=O)[nH]c2cc(C(=O)NCCc3ccc(S(N)(=O)=O)cc3)ccc2c1=O | inconclusive [inhibitor, single point]
11 | Cc1ccc(-c2ccc(/C=N/O)o2)cc1[N+](=O)[O-] | active: 3.16 µM
12 | Cc1c(OC(=O)CNC(=O)OC(C)(C)C)ccc2c3c(c(=O)oc12)CCC3 | inactive
13 | O=c1[nH]c2ccccc2[n+]([O-])c1-c1ccccc1 | inconclusive [inhibitor, single point]
14 | CCCCN(C)C(=O)CCC(=O)Nc1ccc2nc(N3CCN(C)CC3)cc(C)c2c1 | inconclusive [inhibitor, partial curve]
15 | COc1ccccc1NC(=O)CN1CCN(c2ccccc2OC)CC1 | inactive
16 | Cn1c(=O)c2c(nc(CN3CCOCC3)n2CCc2ccccc2)n(C)c1=O | active: 7.08 µM
17 | CCC(CC)C(=O)c1c[nH]c(C(=O)NCCCN2CCOCC2)c1 | inactive
18 | O=C(CCSc1nnnn1-c1ccccc1)N1CCOCC1 | inconclusive [inhibitor, partial curve]
19 | O=C(c1ccccc1F)N1CCN(c2cnn(-c3cccc(Cl)c3)c(=O)c2Cl)CC1 | inconclusive [inhibitor, single point]
20 | Cc1ccc(C)c(OCCn2cc(C(=O)O)c3ccccc32)c1 | inactive
21 | COc1ccccc1NCC(=O)n1nc(C)cc1C | inactive
22 | Cc1ccc(C(=O)Nc2ccc3nc(C)sc3c2)s1 | inactive
23 | CN(C)c1ccc(C(=S)N2CCN(C(=S)Nc3ccccc3)CC2)cc1 | inconclusive [inhibitor, single point]
24 | O=C(CNCc1ccccc1Cl)Nc1ccccc1N1CCCCC1 | inconclusive [inhibitor, single point]

Row | Compound | Potency
25 | Cc1ccc(C(=O)CSc2nc3ccccc3c(=O)n2N)o1 | active: 28.2 µM
26 | CC(=O)NC1C(=O)N=C(SCC(=O)Nc2c(C)cccc2C)NC1=O (configuration not stated) | inconclusive [inhibitor, single point]
27 | O=C(CCN1CCN(c2ccccc2)CC1)NNC(=O)c1cccc2ccccc12 | inconclusive [inhibitor, single point]
28 | Cc1ccc(OCC(=O)N2c3ccccc3CC2C)c([N+](=O)[O-])n1 (configuration not stated) | inconclusive [inhibitor, single point]
29 | NC(=S)NNc1cccc(Cl)c1 | active: 1.58 µM
30 | Cc1ccc(Cl)cc1N1CCN(C(=O)Cc2ccc(-n3c(=O)[nH]c4ccsc4c3=O)cc2)CC1 | inactive
31 | O=C(CCn1[nH]c(=O)c2ccccc2c1=O)OC1CCCCC1 | inconclusive [inhibitor, single point]
32 | COC(=O)CCCC1=CC2=C(c3ccccc3)C(=O)C(C)(OC(=O)C3CCCC3)C(=O)C2=CN1C1CCCC1 (configuration not stated) | inconclusive [inhibitor, single point]
33 | COc1ccc(OCC(=O)N(C)Cc2ccccc2)cc1 | inactive
34 | CN(C)S(=O)(=O)c1cccc(C(=O)OCC(=O)Nc2sccc2C#N)c1 | inconclusive [inhibitor, single point]
35 | O=C(Nc1ccc2c(c1)OCO2)C1CCN(Cc2cnn(-c3ccccc3)c2-n2cccc2)CC1 | inconclusive [inhibitor, single point]
36 | Cc1ccc(S(=O)(=O)N2CCC(=O)N(CCOCc3ccccc3)CC2)cc1 | inconclusive [inhibitor, single point]
37 | O=C(CCCn1c(=O)c2sccc2n(CC(=O)OCc2ccccc2)c1=O)NCc1ccco1 | inconclusive [inhibitor, single point]
38 | CCC(C)(C)C1CCC2(CC1)NC(=O)N(CC(=O)Nc1nc(-c3ccc(C)cc3)cs1)C2=O (configuration not stated) | inactive
39 | Cc1ccc(C(=O)COC(=O)c2cnccn2)cc1 | inactive
40 | O=C(CCN1CCCCC1)c1ccc2c(c1)OCO2 | inconclusive [inhibitor, full curve]
41 | CCC1(CC)Nc2ccccc2C(=O)N1c1ccc(NC(C)=O)cc1 | inconclusive [inhibitor, partial curve]
42 | CCC(=O)Nc1ccc(/C(C)=N\NS(=O)(=O)c2ccc(C)cc2)cc1 | inconclusive [inhibitor, single point]
43 | CCOc1ccc(NC(=O)NCCCSC2CCCCC2)cc1 | inconclusive [inhibitor, partial curve]
44 | Nc1ccc2c(c1)Cc1cc([N+](=O)[O-])ccc1-2 | inactive
45 | CCOC(=O)c1c(C)n(CCNC(C)=O)c2ccc(O)cc12 | inactive
46 | Cc1cccc(C)c1NC(=O)COC(=O)C1CC(=O)N(Cc2ccccc2)C1 (configuration not stated) | inactive
47 | CNc1ccccc(-c2ccc3cc4c(cc3n2)OCO4)c1=O | inconclusive [inhibitor, single point]
